# From the supplement of paper PMC8728848
# The list shows a part of the results.
# B1: MpL2 (Macrolepiota procera) (protein)
# chain: MSTQVSSGQTYKITNVKAGTVIRLSGEDNKSIIGYPYHSGKNQQWTFNWTGKAWTLRSASSGSYLGIEGTPADGTRLVAVNDPFEWHIWRDEANENAFRIFVPFTNYNLDLSGYGDTTPGTPVQLWWTWEGLHQTWTIDRP
# Assays:
# Experiment in all cases: glycan array binding signal (z-score within array); higher = stronger binding
# Conditions in all cases: glycan notation: IUPAC condensed, linker removed; mutation: D22R
# [1] = molecular target: Neu5Ac(a2-3)Gal(b1-3)GlcNAc(b1-6)GalNAc
# Method in brief: (§1)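 Negative Z-scores can be read as non-binding. The Z-score is calculated within each array and then averaged across arrays of one protein sequence at different concentrations or buffers and across linkers. Arrays, 3228 in all, were curated from the Consortium for Functional Glycomics database and kept only where the protein sequence was available.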
# [2] = molecular target: Neu5Ac(a2-3)Gal(b1-3)GlcNAc6S
# Method in brief: as §1
# [3] = molecular target: Neu5Ac(a2-3)Gal(b1-3)[Fuc(a1-4)]GlcNAc
# Method in brief: as §1
# [4] = molecular target: Neu5Ac(a2-3)Gal(b1-3)[Fuc(a1-4)]GlcNAc(b1-3)Gal(b1-3)[Fuc(a1-4)]GlcNAc
# Method in brief: as §1
# [5] = molecular target: Neu5Ac(a2-3)Gal(b1-3)[Fuc(a1-4)]GlcNAc(b1-3)Gal(b1-4)[Fuc(a1-3)]GlcNAc
# Method in brief: as §1
# [6] = molecular target: Neu5Ac(a2-3)Gal(b1-3)[GlcNAc(b1-6)]GalNAc
# Method in brief: as §1
# [7] = molecular target: Neu5Ac(a2-3)Gal(b1-3)[Neu5Ac(a2-6)]GalNAc
# Method in brief: as §1
# [8] = molecular target: Neu5Ac(a2-3)Gal(b1-3)[Neu5Ac(a2-6)]GlcNAc(b1-3)[Fuc(a1-3)[Gal(b1-4)]GlcNAc(b1-6)]Gal(b1-4)Glc
# Method in brief: as §1
# [9] = molecular target: Neu5Ac(a2-3)Gal(b1-3)]Neu5Ac(a2-3)Gal(b1-4)]GlcNAc
# Method in brief: as §1
# Neu5Ac(a2-3)Gal(b1-4)Glc = molecular target: Neu5Ac(a2-3)Gal(b1-4)Glc
# Method in brief: as §1
# [10] = molecular target: Neu5Ac(a2-3)Gal(b1-4)GlcNAc
# Method in brief: as §1
# [11] = molecular target: Neu5Ac(a2-3)Gal(b1-4)GlcNAc(b1-2)Man
# Method in brief: as §1
# [12] = molecular target: Neu5Ac(a2-3)Gal(b1-4)GlcNAc(b1-2)Man(a1-3)[GlcNAc(b1-4)][Neu5Ac(a2-3)Gal(b1-4)GlcNAc(b1-2)Man(a1-6)]Man(b1-4)GlcNAc(b1-4)GlcNAc
# Method in brief: as §1
# [13] = molecular target: Neu5Ac(a2-3)Gal(b1-4)GlcNAc(b1-2)Man(a1-3)[Neu5Ac(a2-3)Gal(b1-4)GlcNAc(b1-2)Man(a1-6)]Man(b1-4)GlcNAc(b1-4)GlcNAc
# Method in brief: as §1
# [14] = molecular target: Neu5Ac(a2-3)Gal(b1-4)GlcNAc(b1-2)Man(a1-3)[Neu5Ac(a2-3)Gal(b1-4)GlcNAc(b1-2)Man(a1-6)]Man(b1-4)GlcNAc(b1-4)[Fuc(a1-6)]GlcNAc
# Method in brief: as §1
# [15] = molecular target: Neu5Ac(a2-3)Gal(b1-4)GlcNAc(b1-2)Man(a1-3)[Neu5Ac(a2-6)Gal(b1-4)GlcNAc(b1-2)Man(a1-6)]Man(b1-4)GlcNAc(b1-4)GlcNAc
# Method in brief: as §1
# [16] = molecular target: Neu5Ac(a2-3)Gal(b1-4)GlcNAc(b1-2)[Neu5Ac(a2-3)Gal(b1-4)GlcNAc(b1-4)]Man(a1-3)[GlcNAc(b1-4)][Neu5Ac(a2-3)Gal(b1-4)GlcNAc(b1-2)[Neu5Ac(a2-3)Gal(b1-4)GlcNAc(b1-6)]Man(a1-6)]Man(b1-4)GlcNAc(b1-4)GlcNAc
# Method in brief: as §1
# [17] = molecular target: Neu5Ac(a2-3)Gal(b1-4)GlcNAc(b1-2)[Neu5Ac(a2-3)Gal(b1-4)GlcNAc(b1-4)]Man(a1-3)[GlcNAc(b1-4)][Neu5Ac(a2-3)Gal(b1-4)GlcNAc(b1-4)Man(a1-6)]Man(b1-4)GlcNAc(b1-4)GlcNAc
# Method in brief: as §1
# [18] = molecular target: Neu5Ac(a2-3)Gal(b1-4)GlcNAc(b1-2)[Neu5Ac(a2-3)Gal(b1-4)GlcNAc(b1-6)]Man(a1-6)[Neu5Ac(a2-3)Gal(b1-4)GlcNAc(b1-2)Man(a1-3)][GlcNAc(b1-4)]Man(b1-4)GlcNAc(b1-4)GlcNAc
# Method in brief: as §1
# [19] = molecular target: Neu5Ac(a2-3)Gal(b1-4)GlcNAc(b1-3)Gal
# Method in brief: as §1
# [20] = molecular target: Neu5Ac(a2-3)Gal(b1-4)GlcNAc(b1-3)Gal(b1-3)GlcNAc
# Method in brief: as §1
# [21] = molecular target: Neu5Ac(a2-3)Gal(b1-4)GlcNAc(b1-3)Gal(b1-4)GlcNAc
# Method in brief: as §1
# [22] = molecular target: Neu5Ac(a2-3)Gal(b1-4)GlcNAc(b1-3)Gal(b1-4)GlcNAc(b1-2)Man(a1-3)[Neu5Ac(a2-3)Gal(b1-4)GlcNAc(b1-3)Gal(b1-4)GlcNAc(b1-2)Man(a1-6)]Man(b1-4)GlcNAc(b1-4)GlcNAc
# Method in brief: as §1
# [23] = molecular target: Neu5Ac(a2-3)Gal(b1-4)GlcNAc(b1-3)Gal(b1-4)GlcNAc(b1-3)Gal(b1-4)GlcNAc
# Method in brief: as §1
# [24] = molecular target: Neu5Ac(a2-3)Gal(b1-4)GlcNAc(b1-3)Gal(b1-4)GlcNAc(b1-3)Gal(b1-4)GlcNAc(b1-2)Man(a1-3)[Neu5Ac(a2-3)Gal(b1-4)GlcNAc(b1-3)Gal(b1-4)GlcNAc(b1-3)Gal(b1-4)GlcNAc(b1-2)Man(a1-6)]GalNAc
# Method in brief: as §1
# [25] = molecular target: Neu5Ac(a2-3)Gal(b1-4)GlcNAc(b1-3)Gal(b1-4)GlcNAc(b1-3)GalNAc
# Method in brief: as §1
# [26] = molecular target: Neu5Ac(a2-3)Gal(b1-4)GlcNAc(b1-3)Gal(b1-4)GlcNAc(b1-3)[Neu5Ac(a2-3)Gal(b1-4)GlcNAc(b1-3)Gal(b1-4)GlcNAc(b1-6)]GalNAc
# Method in brief: as §1
# [27] = molecular target: Neu5Ac(a2-3)Gal(b1-4)GlcNAc(b1-3)Gal(b1-4)GlcNAc(b1-6)[Gal(b1-3)]GalNAc
# Method in brief: as §1
# [28] = molecular target: Neu5Ac(a2-3)Gal(b1-4)GlcNAc(b1-3)Gal(b1-4)[Fuc(a1-3)]GlcNAc
# Method in brief: as §1
# [29] = molecular target: Neu5Ac(a2-3)Gal(b1-4)GlcNAc(b1-3)GalNAc
# Method in brief: as §1
# [30] = molecular target: Neu5Ac(a2-3)Gal(b1-4)GlcNAc(b1-3)[Neu5Ac(a2-3)Gal(b1-4)GlcNAc(b1-6)]GalNAc
# Method in brief: as §1
# [31] = molecular target: Neu5Ac(a2-3)Gal(b1-4)GlcNAc(b1-6)GalNAc
# Method in brief: as §1
# [32] = molecular target: Neu5Ac(a2-3)Gal(b1-4)GlcNAc(b1-6)[Gal(b1-3)]GalNAc
# Method in brief: as §1
# [33] = molecular target: Neu5Ac(a2-3)Gal(b1-4)GlcNAc(b1-6)[Neu5Ac(a2-3)Gal(b1-3)]GalNAc
# Method in brief: as §1
# [34] = molecular target: Neu5Ac(a2-3)Gal(b1-4)GlcNAc6S
# Method in brief: as §1
# [35] = molecular target: Neu5Ac(a2-3)Gal(b1-4)[Fuc(a1-3)]GlcNAc
# Method in brief: as §1
# [36] = molecular target: Neu5Ac(a2-3)Gal(b1-4)[Fuc(a1-3)]GlcNAc(b1-2)Man
# Method in brief: as §1
# [37] = molecular target: Neu5Ac(a2-3)Gal(b1-4)[Fuc(a1-3)]GlcNAc(b1-3)Gal
# Method in brief: as §1
# [38] = molecular target: Neu5Ac(a2-3)Gal(b1-4)[Fuc(a1-3)]GlcNAc(b1-3)Gal(b1-4)GlcNAc
# Method in brief: as §1
# [39] = molecular target: Neu5Ac(a2-3)Gal(b1-4)[Fuc(a1-3)]GlcNAc(b1-3)Gal(b1-4)[Fuc(a1-3)]GlcNAc(b1-3)Gal(b1-4)[Fuc(a1-3)]GlcNAc
# Method in brief: as §1
# [40] = molecular target: Neu5Ac(a2-3)Gal(b1-4)[Fuc(a1-3)]GlcNAc(b1-3)GalNAc
# Method in brief: as §1
# [41] = molecular target: Neu5Ac(a2-3)Gal(b1-4)[Fuc(a1-3)]GlcNAc(b1-6)[Gal(b1-3)]GalNAc
# Method in brief: as §1
# [42] = molecular target: Neu5Ac(a2-3)Gal(b1-4)[Fuc(a1-3)]GlcNAc(b1-6)[Neu5Ac(a2-3)Gal(b1-3)]GalNAc
# Method in brief: as §1
# [43] = molecular target: Neu5Ac(a2-3)Gal(b1-4)[Fuc(a1-3)]GlcNAc6S
# Method in brief: as §1
# [44] = molecular target: Neu5Ac(a2-3)Gal6S(b1-4)GlcNAc
# Method in brief: as §1
binder,measurement,setting,value
B1,glycan array binding signal (z-score),[1],-0.086
same,glycan array binding signal (z-score),[2],0.313
same,glycan array binding signal (z-score),[3],-0.119
same,glycan array binding signal (z-score),[4],-0.199
same,glycan array binding signal (z-score),[5],0.382
same,glycan array binding signal (z-score),[6],-0.262
same,glycan array binding signal (z-score),[7],-0.232
same,glycan array binding signal (z-score),[8],0.292
same,glycan array binding signal (z-score),[9],-0.346
same,glycan array binding signal (z-score),Neu5Ac(a2-3)Gal(b1-4)Glc,0.286
same,glycan array binding signal (z-score),[10],-0.933
same,glycan array binding signal (z-score),[11],0.304
same,glycan array binding signal (z-score),[12],-0.03
same,glycan array binding signal (z-score),[13],-0.534
same,glycan array binding signal (z-score),[14],0.287
same,glycan array binding signal (z-score),[15],-0.105
same,glycan array binding signal (z-score),[16],-0.66
same,glycan array binding signal (z-score),[17],-0.638
same,glycan array binding signal (z-score),[18],-0.76
same,glycan array binding signal (z-score),[19],-0.565
same,glycan array binding signal (z-score),[20],-0.092
same,glycan array binding signal (z-score),[21],0.013
same,glycan array binding signal (z-score),[22],1.93
same,glycan array binding signal (z-score),[23],-0.861
same,glycan array binding signal (z-score),[24],1.5
same,glycan array binding signal (z-score),[25],-0.278
same,glycan array binding signal (z-score),[26],0.155
same,glycan array binding signal (z-score),[27],-0.014
same,glycan array binding signal (z-score),[28],-0.58
same,glycan array binding signal (z-score),[29],-0.161
same,glycan array binding signal (z-score),[30],0.08
same,glycan array binding signal (z-score),[31],-1.26
same,glycan array binding signal (z-score),[32],0.265
same,glycan array binding signal (z-score),[33],-0.836
same,glycan array binding signal (z-score),[34],-0.566
same,glycan array binding signal (z-score),[35],-0.189
same,glycan array binding signal (z-score),[36],-0.833
same,glycan array binding signal (z-score),[37],-0.033
same,glycan array binding signal (z-score),[38],0.077
same,glycan array binding signal (z-score),[39],-0.574
same,glycan array binding signal (z-score),[40],0.709
same,glycan array binding signal (z-score),[41],0.668
same,glycan array binding signal (z-score),[42],0.565
same,glycan array binding signal (z-score),[43],-0.024
same,glycan array binding signal (z-score),[44],-0.454
